# Test results as given in the supplement of paper PMC10670038.
# ± gives the standard deviation of the averaged measurements. The lowest values were mostly taken out for another list; the other results follow.
# System: TE10
# Assay: relative cell viability vs DMSO, compound + 0.2 uM CuET (fraction); TE10 is an esophageal squamous carcinoma line; higher = less cytotoxic
# Settings: 2 µM; co-treatment: CuET (bis(diethyldithiocarbamate)copper) 0.2 uM; 48 h
# Description: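 TE10 ESCC cells (1,000/well, 384-well plates) were treated with Selleck bioactive library compounds at 2 uM combined with 0.2 uM CuET (copper diethyldithiocarbamate) for 48 h. Viability was read by CellTiter-Glo and expressed relative to DMSO wells. Two technical replicates (A, B).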
row,Compound,relative cell viability
1,COC(=O)C(CCCN=C(N)N)NS(=O)(=O)c1ccc(C)cc1 (stereo not given),1.06 ± 0.066
2,Cc1ccc(C(=O)NCCCCCC(=O)Nc2ccccc2N)cc1,0.856 ± 0.019
3,Cc1nc2c(-c3cnc(N)nc3)nc(N3CCOCC3)nc2n1C(C)C,0.6108 ± 0.0027
4,CN1C2CCC1CC(OC(=O)C(O)c1ccccc1)C2 (stereo not given) [Homatropine Bromide],1.25 ± 0.21
5,Cc1ccccc1-n1c(Cn2nc(-c3cccc(O)c3)c3c(N)ncnc32)nc2cccc(C)c2c1=O,1.06 ± 0.084
